Reference: article PMC8623395, “Virtual Screening and Molecular Dynamics Simulation Study of Influenza Polymerase PB2 Inhibitors” (Molecules, 2021)

Molecular target: PB2 CBD of influenza A/WSN/1933(H1N1) (Influenza A virus, UniProt P03427)
Test: Surface plasmon resonance (SPR) analysis

Compound | Kd
O=C(Nc1nc(-c2ccc(O)cc2)c(CCc2ccccc2)s1)c1cc(O)c(O)c(O)c1 [Str1614] | 81 nM
CCCCOc1ccc(-c2csc(Nc3ccc(CCC(=O)O)cc3)n2)cc1Cl [Str1916] | 917 nM
O=C(O)c1cccc([C@@H](c2ccc(O)c(C(=O)O)c2)C(Cl)(Cl)Cl)c1 [Str5776] | 178 nM
O=C(CCCCC(=O)c1ccccc1C(=O)O)c1ccccc1 [Str6318] | 1530 nM
COc1c2oc3c(OC)ccc(C(=O)N[C@@H](Cc4ccccc4)C(=O)O)c3nc-2cc(N)c1=O [Str7374] | 910 nM
